The target in experiment [1] is T1, FBXO24-HA (FBXO24 with a C-terminal HA epitope tag, from Fbxo24-HA-tagged transgenic mice) (mouse) (UniProt Q9D417).
T1 sequence: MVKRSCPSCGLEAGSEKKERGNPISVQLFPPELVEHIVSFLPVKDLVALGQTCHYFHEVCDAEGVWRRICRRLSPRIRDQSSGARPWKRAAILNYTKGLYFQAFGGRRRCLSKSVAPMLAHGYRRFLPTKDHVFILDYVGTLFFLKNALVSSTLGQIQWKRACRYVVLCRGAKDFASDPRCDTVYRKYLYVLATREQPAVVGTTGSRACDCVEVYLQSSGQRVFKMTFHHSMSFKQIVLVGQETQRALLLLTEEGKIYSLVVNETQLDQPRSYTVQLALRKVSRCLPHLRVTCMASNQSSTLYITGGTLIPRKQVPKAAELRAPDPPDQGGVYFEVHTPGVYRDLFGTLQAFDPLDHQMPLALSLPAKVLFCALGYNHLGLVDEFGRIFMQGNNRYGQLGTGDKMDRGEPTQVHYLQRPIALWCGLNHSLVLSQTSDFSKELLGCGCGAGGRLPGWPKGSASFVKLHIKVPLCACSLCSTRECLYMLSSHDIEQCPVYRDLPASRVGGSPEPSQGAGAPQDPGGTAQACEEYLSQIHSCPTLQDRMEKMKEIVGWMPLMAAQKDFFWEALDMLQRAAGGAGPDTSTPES
The experiment is described as follows: co-IP; testis lysate of Fbxo24-HA-tagged mice in IP buffer, anti-HA nanobody agarose beads, 4°C overnight, western blot; wild-type testis as negative control. Background: A western blot detects proteins with antibodies after separation by electrophoresis.

Protein sequences, listed by entry. Tags and fused reporters are not part of them.
UniProt Q9WTX6: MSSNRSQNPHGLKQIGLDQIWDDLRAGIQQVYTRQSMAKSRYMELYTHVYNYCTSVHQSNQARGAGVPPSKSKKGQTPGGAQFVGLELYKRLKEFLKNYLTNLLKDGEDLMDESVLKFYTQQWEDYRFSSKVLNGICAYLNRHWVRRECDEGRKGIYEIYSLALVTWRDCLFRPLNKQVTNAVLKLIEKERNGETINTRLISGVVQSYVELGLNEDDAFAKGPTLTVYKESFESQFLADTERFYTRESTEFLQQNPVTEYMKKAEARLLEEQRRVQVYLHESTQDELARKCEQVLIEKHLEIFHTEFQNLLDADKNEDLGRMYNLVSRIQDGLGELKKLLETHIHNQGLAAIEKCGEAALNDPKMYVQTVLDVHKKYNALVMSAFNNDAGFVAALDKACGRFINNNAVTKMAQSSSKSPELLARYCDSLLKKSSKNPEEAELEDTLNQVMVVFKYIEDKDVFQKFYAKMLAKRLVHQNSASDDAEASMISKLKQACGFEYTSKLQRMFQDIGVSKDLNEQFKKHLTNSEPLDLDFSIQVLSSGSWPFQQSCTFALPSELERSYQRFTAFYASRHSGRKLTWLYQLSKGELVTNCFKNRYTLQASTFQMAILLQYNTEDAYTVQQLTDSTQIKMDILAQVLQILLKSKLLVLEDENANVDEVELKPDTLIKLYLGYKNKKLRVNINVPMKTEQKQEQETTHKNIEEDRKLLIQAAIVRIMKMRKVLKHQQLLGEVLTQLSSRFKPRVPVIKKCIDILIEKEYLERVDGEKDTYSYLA
UniProt Q9JMB7: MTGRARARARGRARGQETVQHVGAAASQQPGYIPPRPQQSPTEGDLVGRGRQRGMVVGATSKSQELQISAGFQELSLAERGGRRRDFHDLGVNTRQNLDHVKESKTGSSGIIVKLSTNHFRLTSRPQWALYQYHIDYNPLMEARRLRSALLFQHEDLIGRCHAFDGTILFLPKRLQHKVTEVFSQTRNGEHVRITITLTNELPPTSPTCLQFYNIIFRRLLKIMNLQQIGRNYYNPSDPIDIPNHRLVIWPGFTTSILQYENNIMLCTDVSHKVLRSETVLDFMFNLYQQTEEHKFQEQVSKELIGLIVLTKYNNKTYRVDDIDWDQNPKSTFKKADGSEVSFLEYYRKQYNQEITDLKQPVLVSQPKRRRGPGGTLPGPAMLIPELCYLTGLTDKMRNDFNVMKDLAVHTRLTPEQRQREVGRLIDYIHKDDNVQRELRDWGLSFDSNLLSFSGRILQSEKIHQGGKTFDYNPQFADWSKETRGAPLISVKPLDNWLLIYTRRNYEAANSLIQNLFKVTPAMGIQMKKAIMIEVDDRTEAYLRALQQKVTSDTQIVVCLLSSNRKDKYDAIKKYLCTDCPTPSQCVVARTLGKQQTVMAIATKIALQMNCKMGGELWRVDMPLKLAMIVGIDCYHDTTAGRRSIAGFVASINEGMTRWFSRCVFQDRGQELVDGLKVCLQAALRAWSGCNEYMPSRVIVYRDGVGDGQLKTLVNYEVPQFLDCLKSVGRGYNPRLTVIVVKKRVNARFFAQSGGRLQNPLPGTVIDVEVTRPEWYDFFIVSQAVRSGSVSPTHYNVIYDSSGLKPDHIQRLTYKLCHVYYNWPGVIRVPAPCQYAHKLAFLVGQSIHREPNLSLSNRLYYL
UniProt Q62093: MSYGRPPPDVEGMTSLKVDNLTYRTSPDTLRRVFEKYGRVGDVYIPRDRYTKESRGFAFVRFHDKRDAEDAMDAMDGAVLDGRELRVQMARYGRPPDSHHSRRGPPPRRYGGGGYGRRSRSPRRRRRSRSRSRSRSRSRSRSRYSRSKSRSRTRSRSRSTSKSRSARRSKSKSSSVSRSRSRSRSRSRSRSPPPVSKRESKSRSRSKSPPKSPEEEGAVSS

Experiment [2] has as its target T2, FBXO24-mCherry (UniProt Q9D417).
T2 sequence: T1 sequence
The experiment is described as follows: co-IP; FBXO24-mCherry expressed in HEK293T cells, incubated with the testicular protein lysate; anti-mCherry beads; western blot; mCherry vector as control.

The target of experiment [3] is T3, truncated FBXO24 that contains only the F-box domain (mCherry-tagged) (UniProt Q9D417).
T3 sequence: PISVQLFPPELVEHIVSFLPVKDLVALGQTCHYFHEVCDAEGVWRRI
In words: co-IP; HEK293T cells transfected with the indicated plasmids, 48 hr; mCherry-Trap beads, 4°C 2 hr, wash 10 mM Tris-HCl pH 7.5, 150 mM NaCl, 0.5 mM EDTA; western blot.

In experiment [4] the target is T1, FBXO24-HA (FBXO24 with a C-terminal HA epitope tag, from Fbxo24-HA-tagged transgenic mice) (mouse). The experiment is described as follows: co-IP; testis lysate of Fbxo24-HA-tagged mice in IP buffer, anti-HA nanobody agarose beads, 4°C overnight, western blot; wild-type testis as negative control. The source holds these as a separate data set.

Like-named read-outs stand apart in the source and are kept apart here. Results are given in words; binding and its absence hold for the method and conditions named. Binding seen in cells or lysates may run through a third protein. Some binding calls cover weakened binding; strength is not graded here. For some assays here: Sequences can lack the tags named with a protein.

Consider CUL1 (from UniProt Q9WTX6 1-776), for which the binding result in experiment [1] and in experiment [2] was “binds” each time.
As for MIWI (from UniProt Q9JMB7 1-862), the binding entry in experiment [1] and in experiment [2] was “binds” each time.
With MIWI-myc (from UniProt Q9JMB7 1-862), the binding entry in experiment [3] was “binds”.
Consider SRSF2 (from UniProt Q62093 1-221), for which the binding entry in experiment [1] is recorded as “binds”.

B1: transition protein TNP1 (protein, UniProt P10856 1-55)
chain: MSTSRKLKTHGMRRGKNRAPHKGVKRGGSKRKYRKSVLKSRKRGDDASRNYRSHL
For the molecule B1, in experiment [4], the binding result is “no binding”.

B2: SRSF3 (protein, UniProt P84104 1-164)
chain: MHRDSCPLDCKVYVGNLGNNGNKTELERAFGYYGPLRSVWVARNPPGFAFVEFEDPRDAADAVRELDGRTLCGCRVRVELSNGEKRSRNRGPPPSWGRRPRDDYRRRSPPPRRRSPRRRSFSRSRSRSLSRDRRRERSLSRERNHKPSRSFSRSRSRSRSNERK
With B2, in experiment [4], the binding result was “binds”.

(Values after paper PMC10932545.)
